Assay results: PubChem BioAssay AID488969 (Vanderbilt High Throughput Screening Facility, 2010)
Over roughly 110,000 compounds, “z-score” has its median near -0.1; the highest 2% begin near 2. The list shows a part of the results. Residues, ends and D or L forms follow the SMILES beside them. *: point of attachment. Boc = CC(C)(C)OC(=O)*

These compounds were tested against Metabotropic glutamate receptor 8 (Rattus norvegicus) (UniProt P70579) (assay: rat mGluR8 modulators via GIRK flux, primary screen, cell-based, thallium flux, HTS (AID 488969)). Settings: HEK293 rat mGluR8, GIRK (G protein-gated inwardly rectifying potassium channel) thallium flux, FluoZin2; at 10 µM; stronger effect = higher value; submaximal glutamate (EC20) added with thallium.
UniProt P70579, sequence (P70579 whole entry, looked up): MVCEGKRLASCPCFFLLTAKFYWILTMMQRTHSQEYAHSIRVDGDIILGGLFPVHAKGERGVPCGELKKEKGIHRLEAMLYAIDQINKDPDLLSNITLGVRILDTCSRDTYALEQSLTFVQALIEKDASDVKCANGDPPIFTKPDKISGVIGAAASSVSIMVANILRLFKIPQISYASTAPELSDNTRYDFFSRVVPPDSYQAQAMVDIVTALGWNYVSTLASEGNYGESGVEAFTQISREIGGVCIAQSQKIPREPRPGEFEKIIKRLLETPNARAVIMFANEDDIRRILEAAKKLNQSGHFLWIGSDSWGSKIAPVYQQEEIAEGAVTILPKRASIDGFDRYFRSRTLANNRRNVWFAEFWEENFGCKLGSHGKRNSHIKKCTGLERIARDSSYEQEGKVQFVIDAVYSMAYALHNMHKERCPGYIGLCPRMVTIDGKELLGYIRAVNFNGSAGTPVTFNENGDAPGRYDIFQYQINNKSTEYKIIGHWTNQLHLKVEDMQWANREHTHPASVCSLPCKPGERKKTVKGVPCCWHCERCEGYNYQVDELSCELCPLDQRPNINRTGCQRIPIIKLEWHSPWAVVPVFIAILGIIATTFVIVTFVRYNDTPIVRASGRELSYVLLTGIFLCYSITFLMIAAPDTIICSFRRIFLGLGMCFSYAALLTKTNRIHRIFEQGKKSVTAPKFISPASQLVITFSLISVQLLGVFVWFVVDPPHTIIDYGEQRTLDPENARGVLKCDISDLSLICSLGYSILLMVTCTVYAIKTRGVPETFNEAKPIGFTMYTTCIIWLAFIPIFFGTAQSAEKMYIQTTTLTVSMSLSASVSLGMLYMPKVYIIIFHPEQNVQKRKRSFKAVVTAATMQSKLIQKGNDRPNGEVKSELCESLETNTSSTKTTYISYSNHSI

SMILES	z-score
O=c1c2ccccc2nc(-c2ccc(Cl)cc2Cl)n1CCCn1ccnc1	-0.354
CCOCCCn1cnc2c(c1=O)c1nc3ccccc3nc1n2-c1ccc(C)cc1	-0.457
COc1ccc(CNC(=O)CCCOc2cc(=O)n(C)c3ccccc23)cc1	0.0421
COc1ccc(NC(=O)CCC(=O)N/N=C/c2ccc([N+](=O)[O-])s2)cc1	-0.189
CCCS(=O)(=O)N1CCN(S(=O)(=O)c2ccc(F)cc2)CC1	0.369
O=C(NCc1ccccn1)c1n[nH]c2ccccc12	0.0289
CC1=CC2=NC(=O)/C(=C\c3cc(C)n(-c4ccc(F)cc4)c3C)C(=N)N2O1	-0.0835
CC(C)CC(NC(=O)OC(C)(C)C)C(=O)NC(C(=O)NC(C)C(N)=O)C(C)C (stereo not drawn) (Boc-Leu-Val-Ala-NH2; configuration not given here)	0.264
O=C(NCCc1csc(-c2cccnc2)n1)c1ccco1	0.0644
Cc1ccc(/C=C2\SC(=S)N(CCC(=O)NNC(=O)c3cccnc3)C2=O)cc1	-0.628
Cc1ccc(NC2=C(Cl)C(=O)c3ccccc3C2=O)cc1	-0.618
Cc1ccc(C(=O)NCCCN2CCOCC2)cc1N1CCCC1=O	-1.33
O=C(OCc1cc2ccccc2[nH]c1=O)c1ccncc1	-0.917
CC(C)CC(=O)NC1(C(F)(F)F)C(=O)Nc2c1c(=O)n(C)c(=O)n2C (stereo not given)	0.339
CCN(CC)c1ccc(N=Cc2ccc(N(CC)CC)cc2O)cc1	0.0973
Cc1cc(C)n2nc(SCc3nc4ccccc4[nH]3)nc2n1	-0.307
C=CCn1c(SCC(=O)N2CCN(c3ccc(F)cc3)CC2)nnc1-c1cccs1	-0.652
CC(C)(C)c1ccc(S(=O)(=O)CC(O)CSc2nc3c(cc2C#N)CCCC3)cc1 (stereo not given)	-0.146
Oc1cccc(-c2nc3ccccc3s2)c1	0.361
CCNC(=S)Nc1ccc(Cl)cc1	-0.278
Cc1cnc(C(=O)Nc2nc(-c3ccccc3)cs2)cn1	0.227
CC(C)(C)c1ccc(C(=O)NCC(=O)OCC(=O)Nc2ccc3c(c2)OCCO3)cc1	0.131
CC1CC2=C(NC(=S)NC2c2ccc(F)cc2)/C(=C/c2ccc(F)cc2)C1 (stereo not given)	-0.0718
S=c1[nH]nc(-c2cnccn2)n1-c1ccccc1	0.496
COC(=O)c1sc(N)c(C(=O)OC)c1COC(=O)CNS(=O)(=O)c1ccc(C)c(C)c1	-0.386
CCOC(=O)n1c(=O)oc2ccccc21	-0.195
Oc1ccc2ccccc2c1CN1CCN(c2ccccc2)CC1	-0.548
O=C(Nc1ccccc1)c1ccc2nsnc2c1	-0.000294

SMILES	z-score
O=C1C=C(NCc2ccc(Cl)cc2Cl)C2(CCCCC2)O1	-0.359
COC(=O)c1ccc(C(=O)OC)c(NC(=O)COC(=O)CC2CC3CCC2C3)c1 (stereo not given)	-0.338
CCOC(=O)N1CCC(NC(=O)c2cccc3c2C(=O)N(CCOC)C3)CC1	-0.296
CC1(C)Cc2ccccc2-c2nnc(SCc3ccc(C#N)cc3)n21	-0.168
CCCCNC(=O)c1ccc(Cn2c(=S)[nH]c3c([nH]c4ccc(OC)cc43)c2=O)cc1	-0.139
CCOc1ccc(-c2cc(C(=O)NCC3CCCO3)c3ccccc3n2)cc1 (stereo not given)	-0.12
COc1ccc(C(=O)COC(=O)CCn2nnc(-c3cccs3)n2)cc1	0.141
C/C(=N\NS(=O)(=O)c1cccc([N+](=O)[O-])c1)c1cc2ccccc2o1	-0.274
COc1cccc(N2C(=O)C(Cc3c[nH]c4ccccc34)NC2=S)c1 (stereo not given)	-0.229
C=CCSc1nnc(NC(=O)CSc2nc3ccccc3[nH]2)s1	-0.258
COc1ccc(C(=O)c2ccc(N(C)C)cc2)c(OC)c1	-0.297
Cn1nc(C(=O)Nc2nc3ccc(S(C)(=O)=O)cc3s2)ccc1=O	-0.896
CC(O)(C#CCN1CCOCC1)c1ccccc1 (stereo not given)	-0.413
Cc1cccnc1NC(=O)C12CCC(C)(C(=O)O1)C2(C)C (stereo not given)	0.266
COc1ccnc(Nc2cccc(C)c2)c1C#N	-0.0324
CCOc1ccc(NC(=O)CCC(=O)n2nc(C)cc2C)cc1	-0.163
CN(C)CCN(C(=O)c1ccccc1Cl)c1nc2c(Cl)cccc2s1	-0.8
O/N=C1\CCC\C1=C/c1ccco1	0.461
COc1ccc2nc(NC(=O)C3CCN(S(=O)(=O)c4cccnc4)CC3)sc2c1	-0.396
O=[N+]([O-])c1cccnc1N1CCC(c2cc(-c3ccc(Cl)cc3Cl)n[nH]2)CC1	-0.166
CCOC(=O)c1sc(NS(=O)(=O)c2ccc(C)cc2)nc1C	-0.406
CC(C)OC(=O)NCN1C(=O)C2C3C=CC(C3)C2C1=O (stereo not given)	0.436
O=C1CC(N(Cc2ccc3c(c2)OCO3)C(=O)Nc2ccc(F)cc2)C(=O)N1c1ccccc1 (stereo not given)	-0.162
Cc1ccc(-n2c3nc(=O)[nH]c(=O)c-3cc3cc([N+](=O)[O-])ccc32)cc1	-0.767
COc1ccc(CNC(=O)NC(C)(C)c2cccc(C(C)(C)NC(=O)NCc3ccc(OC)cc3)c2)cc1	-0.759
O=C(CN1C(=O)NC2(CCCCC2)C1=O)NCc1cccs1	0.496
COc1ccc(NC(=O)CSc2nc3ncccc3[nH]2)cc1OC	-0.426
